One block for each binder: values may come before it.
Columns and labels:
human FCγRIIIa receptor [1] = biological target: T1, human FCγRIIIa receptor (human, UniProt P08637 part only, limits assumed); assay: BLI; Ratio against the hIgG (hIgG1) control, fits KD(hIgG)/KD(sample)
T1 construct: Used in solution as the 'antigen' in BLI; also called FcγIIIa receptor
Description: (§1) (3) Preparation of antigen working solution: 200 nM antigen (FCγRIIIa) in SD buffer was first prepared at and then serially diluted in 2 folds to prepare a total of 5 concentration gradients, in addition to which a zero concentration was prepared.
(§2) (11) Data analysis: related constants, such as KD, Kon, Koff, X2, Full R2 and the like were calculated in Data Analysis software.
(§3) In the examples of the present application, the modified bispecific antibody was subjected to BLI test to determine the affinity of the modified bispecific antibody to human FCγRIIIa.

human FCγRIIIa receptor [2] = biological target: T1, human FCγRIIIa receptor; assay: BLI (Octet 96), antibody loaded on sensor, FCγRIIIa 200 nM and 2-fold dilutions in solution
Description: as §1, §2, §3

T1 sequence (P08637 17-208 limits assumed): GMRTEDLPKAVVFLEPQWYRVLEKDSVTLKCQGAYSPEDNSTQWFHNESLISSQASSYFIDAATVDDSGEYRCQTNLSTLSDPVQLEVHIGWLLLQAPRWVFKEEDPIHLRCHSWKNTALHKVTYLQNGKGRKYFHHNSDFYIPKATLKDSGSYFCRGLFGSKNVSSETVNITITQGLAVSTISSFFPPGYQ

Ratio (human FCγRIIIa receptor [1]): 1.21 | Kd (human FCγRIIIa receptor [2]): 73.4 nM
B2: bispecific antibody BM#37 against CD33 and CD123 (bispecific antibody, human IgG1)
chain 1: QVQLVESGGGSVQAGGSLRLSCAASGYTYSSTCIGWFRQAPGKDREGVAFAYTGGGVTYADSVKGRFTISQDNAKNTVHLIMNSLKPEDTAMYYCAAKTRGGCWAAAAFYNYWGQGTQVTVSS[human IgG1 Fc with Q347M (EU numbers) left out here]
chain 2: QVQLVESGGGSVQAGGSLKLSCAASRFIFSRCGMGWFRQAPGKERELVSTISGDGTTFYADSVKGRFTISQHNAATTLYLQMNSLKLEDTAVYYCAADCYNRKYWGQGTQVTVSS[human IgG1 Fc with K360W (EU numbers) left out here]
notes: VHH-Fc heterodimer; also called BM-RT2831-#37

Ratio (human FCγRIIIa receptor [1]): 1.36 | Kd (human FCγRIIIa receptor [2]): 64.9 nM
B4: bispecific antibody BM#35 against CD33 and CD123 (bispecific antibody, human IgG1)
chain 1: QVQLVESGGGSVQAGGSLRLSCAASGYTYSSTCIGWFRQAPGKDREGVAFAYTGGGVTYADSVKGRFTISQDNAKNTVHLIMNSLKPEDTAMYYCAAKTRGGCWAAAAFYNYWGQGTQVTVSS[human IgG1 Fc with E357V (EU numbers) left out here]
chain 2: QVQLVESGGGSVQAGGSLKLSCAASRFIFSRCGMGWFRQAPGKERELVSTISGDGTTFYADSVKGRFTISQHNAATTLYLQMNSLKLEDTAVYYCAADCYNRKYWGQGTQVTVSS[human IgG1 Fc with K370W (EU numbers) left out here]
notes: VHH-Fc heterodimer; also called BM-RT2831-#35

More lines, now with the values behind:

B1: bispecific antibody BM#25 against CD33 and CD123 (bispecific antibody, human IgG1)
chain 1: QVQLVESGGGSVQAGGSLRLSCAASGYTYSSTCIGWFRQAPGKDREGVAFAYTGGGVTYADSVKGRFTISQDNAKNTVHLIMNSLKPEDTAMYYCAAKTRGGCWAAAAFYNYWGQGTQVTVSS[human IgG1 Fc with E357D D399K (EU numbers) left out here]
chain 2: QVQLVESGGGSVQAGGSLKLSCAASRFIFSRCGMGWFRQAPGKERELVSTISGDGTTFYADSVKGRFTISQHNAATTLYLQMNSLKLEDTAVYYCAADCYNRKYWGQGTQVTVSS[human IgG1 Fc with K370Y K409D (EU numbers) left out here]
notes: VHH-Fc heterodimer; also called BM-RT2831-#25
Ratio (human FCγRIIIa receptor [1]): 1.08 | Kd (human FCγRIIIa receptor [2]): 81.8 nM

B3: bispecific antibody BM#34 against CD33 and CD123 (bispecific antibody, human IgG1)
chain 1: QVQLVESGGGSVQAGGSLRLSCAASGYTYSSTCIGWFRQAPGKDREGVAFAYTGGGVTYADSVKGRFTISQDNAKNTVHLIMNSLKPEDTAMYYCAAKTRGGCWAAAAFYNYWGQGTQVTVSS[human IgG1 Fc with D356V (EU numbers) left out here]
chain 2: QVQLVESGGGSVQAGGSLKLSCAASRFIFSRCGMGWFRQAPGKERELVSTISGDGTTFYADSVKGRFTISQHNAATTLYLQMNSLKLEDTAVYYCAADCYNRKYWGQGTQVTVSS[human IgG1 Fc with K439W (EU numbers) left out here]
notes: VHH-Fc heterodimer; also called BM-RT2831-#34
Ratio (human FCγRIIIa receptor [1]): 1.13 | Kd (human FCγRIIIa receptor [2]): 78.5 nM

From patent US20250163166A1 (REGENECORE BIOTECH, published 2025)
